Reference: DBAASP
Converted amounts (≈) assume the structure as drawn. “And” between values parts separate entries of the source, which are not always exact repeats. Equal values may be shown once.

Columns and labels:
Experiment in all cases: ≥ marks a high value that may be exact or a test limit, other limits are often not marked
[1] = test system: Salmonella enterica serovar Typhimurium
[2] = test system: Candida albicans
[3] = test system: Pseudomonas aeruginosa M917
[4] = test system: Pseudomonas aeruginosa M1426
[5] = test system: Stenotrophomonas maltophilia
[6] = test system: Escherichia coli UB1005
[7] = test system: Staphylococcus aureus
[8] = test system: Pseudomonas fluorescens
[9] = test system: Staphylococcus aureus ATCC 6538
[10] = test system: Pseudomonas aeruginosa
[11] = test system: Ralstonia pickettii
[12] = test system: Pseudomonas aeruginosa M76
[13] = test system: Pseudomonas aeruginosa M1251
[14] = test system: Pseudomonas aeruginosa PAO1
[15] = test system: Achromobacter xylosoxidans
[16] = test system: Pseudomonas aeruginosa R70
[17] = test system: Pseudomonas aeruginosa ATCC 9027
[18] = test system: Escherichia coli K-12
[19] = test system: Bacillus subtilis ATCC 62037
[20] = test system: Staphylococcus aureus ATCC 15752
[21] = test system: Lactococcus garvieae
[22] = test system: Yersinia ruckeri
[23] = test system: Aeromonas salmonicida
[24] = test system: Pseudomonas putida ATCC 17426
[25] = test system: Escherichia coli ATCC 27325
[26] = test system: Salmonella enterica subsp. enterica serovar Typhimurium ATCC 15277
[27] = test system: Saccharomyces cerevisiae ATCC 44774
[28] = test system: Candida albicans ATCC 10231
[29] = test system: Streptococcus mutans ATCC 25175
[30] = test system: Serratia sp. ATCC 21074
[31] = test system: Staphylococcus aureus USA 300
[32] = test system: Salmonella enterica subsp. enterica serovar Enteritidis ATCC 13076
[33] = test system: Cryptococcus neoformans ATCC 34881
[34] = test system: Edwardsiella ictaluri
[35] = test system: Staphylococcus aureus KCTC 3881
[36] = test system: Proteus mirabilis ATCC 25933
[37] = test system: Staphylococcus epidermidis ATCC 12228
[38] = test system: Klebsiella pneumoniae ATCC 10031
[39] = test system: Bacillus subtilis ATCC 6633
[40] = test system: Micrococcus luteus ATCC 4698
[41] = test system: Shigella dysenteriae ATCC 9752
[42] = test system: Escherichia coli KCTC 2433
[43] = test system: Candida albicans ATCC 36232
[44] = test system: Acinetobacter baumannii ATCC 19606
[45] = test system: Pseudomonas aeruginosa ATCC 27853
[46] = test system: Staphylococcus aureus ATCC 29213
[47] = test system: Staphylococcus aureus ATCC 2592
[48] = test system: Klebsiella pneumoniae ATCC 13883
[49] = test system: Shigella dysenteriae
[50] = test system: Candida albicans ATCC 2002
[51] = test system: Escherichia coli ATCC 25922
[52] = test system: Helicobacter pylori NCTC 11637
[53] = test system: Salmonella enterica subsp. enterica serovar Typhimurium ATCC 14028s
[54] = test system: Pseudomonas aeruginosa K799
[55] = test system: Pseudomonas aeruginosa H547
[56] = test system: Pseudomonas aeruginosa H744
[57] = test system: Pseudomonas aeruginosa Z61
[58] = test system: Pseudomonas aeruginosa H374

In the case of `CC(C)C[C@H](NC(=O)[C@H](CC(C)C)NC(=O)[C@H](CCCCN)NC(=O)[C@H](CCCCN)NC(=O)[C@H](CC(C)C)NC(=O)[C@H](C)NC(=O)[C@H](CCCCN)NC(=O)[C@H](C)NC(=O)[C@H](CC(C)C)NC(=O)[C@H](CC(C)C)NC(=O)[C@H](CCCCN)NC(=O)[C@H](C)NC(=O)[C@@H](N)Cc1ccccc1)C(N)=O` [FAKLLAKALKKLL], the MIC [1] is reported as 2.75 µM (≈ 4 µg/mL), the MIC [2] is reported as 11 µM (≈ 16 µg/mL) and the MIC [3] is reported as 22 µM (≈ 32 µg/mL). It also gave an MIC [4] of 5.49 µM (≈ 7.99 µg/mL), an MIC [5] of 1.37 µM (≈ 2 µg/mL) and an MIC [6] of 2.75 µM (≈ 4 µg/mL). The MIC [7] was 2.75 µM (≈ 4 µg/mL), the MIC [8] was 11 µM (≈ 16 µg/mL) and the MIC [9] was 3.43 µM (≈ 5 µg/mL). For the same compound, the MIC [10] was 7.77 µM (≈ 11.3 µg/mL), the MIC [11] was 11 µM (≈ 16 µg/mL) and the MIC [12] was 11 µM (≈ 16 µg/mL). It also gave an MIC [13] of 5.49 µM (≈ 7.99 µg/mL), an MIC [14] of 5.49 µM (≈ 7.99 µg/mL) and an MIC [15] of at least 43.9 µM. For the same compound, the MIC [16] was 2.75 µM (≈ 4 µg/mL) and the MIC [17] was 3.43 µM (≈ 5 µg/mL).
Work on `CC(C)[C@H](NC(=O)[C@H](CCCCN)NC(=O)CNC(=O)CNC(=O)[C@H](CCC(N)=O)NC(=O)[C@H](CCCCN)NC(=O)CNC(=O)[C@H](CCCNC(=N)N)NC(=O)CNC(=O)[C@@H](N)CCCCN)C(=O)N[C@@H](CCCNC(=N)N)C(=O)N[C@@H](C)C(=O)N[C@@H](CCCCN)C(=O)N[C@@H](C)C(=O)N[C@@H](CCCCN)C(=O)N[C@H](C(=O)N[C@@H](CCCNC(=N)N)C(=O)N[C@@H](CO)C(=O)N[C@@H](CO)C(=O)O)[C@@H](C)O` [KGRGKQGGKVRAKAKTRSS] yielded an MIC [18] of at least 84 µM, an MIC [19] of 1 µM (≈ 2 µg/mL) and an MIC [20] of 2 µM (≈ 4 µg/mL). The MIC [21] was 5 µM (≈ 10 µg/mL), the MIC [22] was 7.5 µM (≈ 15 µg/mL) and the MIC [23] was 5 µM (≈ 10 µg/mL). The MIC [24] was 0.5 µM (≈ 1 µg/mL), the MIC [25] was 0.5 µM (≈ 1 µg/mL) and the MIC [26] was 1 µM (≈ 2 µg/mL). It also gave an MIC [27] of 1 µM (≈ 2 µg/mL), an MIC [28] of 1 µM (≈ 2 µg/mL) and an MIC [29] of 1 µM (≈ 2 µg/mL). It also gave an MIC [30] of 2 µM (≈ 4 µg/mL), an MIC [31] of at least 84 µM and an MIC [32] of 2 µM (≈ 4 µg/mL). The MIC [33] was 1 µM (≈ 2 µg/mL) and the MIC [34] was 5 µM (≈ 10 µg/mL).
For `CC[C@H](C)[C@@H]1NC(=O)[C@H](CCCCN)NC(=O)[C@H](CC(C)C)NC(=O)[C@H](C)NC(=O)[C@H](CCCCN)NC(=O)[C@@H](NC(=O)[C@@H](NC(=O)[C@@H](NC(=O)[C@H](CC(C)C)NC(=O)CNC(=O)[C@H](CC(C)C)NC(=O)[C@@H]2CCCN2C(=O)[C@H](Cc2c[nH]c3ccccc23)NC(=O)[C@@H](N)C(C)C)C(C)C)[C@@H](C)CC)CSSC[C@@H](C(=O)O)NC1=O` [VWPLGLVICKALKIC], the MIC [35] was 1.89 µM (≈ 3.13 µg/mL), the MIC [36] was at least 60.4 µM and the MIC [37] was 3.77 µM (≈ 6.24 µg/mL). For the same compound, the MIC [38] was 9.06 µM (≈ 15 µg/mL), the MIC [39] was 3.77 µM (≈ 6.24 µg/mL) and the MIC [40] was 0.942 µM (≈ 1.56 µg/mL). It also gave an MIC [41] of 18.1 µM (≈ 30 µg/mL), an MIC [42] of 9.06 µM (≈ 15 µg/mL) and an MIC [43] of 15.1 µM (≈ 25 µg/mL). It also gave an MIC [17] of over 60.4 µM.
For `CC(C)C[C@H](NC(=O)CN)C(=O)N[C@@H](CC(C)C)C(=O)N[C@@H](CCCN=C(N)N)C(=O)N[C@@H](C)C(=O)N[C@@H](CO)C(=O)N[C@@H](CO)C(=O)N[C@H](C(=O)N[C@@H](Cc1c[nH]c2ccccc12)C(=O)NCC(=O)N[C@@H](CCCN=C(N)N)C(=O)N[C@@H](CCCCN)C(=O)N[C@@H](Cc1ccc(O)cc1)C(=O)N[C@@H](Cc1ccc(O)cc1)C(=O)N[C@H](C(=O)N[C@@H](CC(=O)O)C(=O)N[C@@H](CC(C)C)C(=O)N[C@@H](C)C(=O)NCC(=O)N[C@@H](CS)C(=O)N[C@@H](C)C(=O)N[C@@H](CCCCN)C(=O)N[C@@H](C)C(=O)O)C(C)C)C(C)C` [GLLRASSVWGRKYYVDLAGCAKA], the MIC [44] was 64 µM (≈ 159 µg/mL), the MIC [45] was over 64 µM and the MIC [46] was 8 µM (≈ 19.9 µg/mL). The MIC [47] was 2.01 µM (≈ 5 µg/mL), the MIC [48] was 16 µM (≈ 39.8 µg/mL) and the MIC [49] was 12.1 µM (≈ 30 µg/mL). For the same compound, the MIC [50] was 10.1 µM (≈ 25 µg/mL), the MIC [51] was 12.1 µM and 32 µM and the MIC [52] was 8.05 µM (≈ 20 µg/mL).
`CC(C)C[C@H](NC(=O)[C@H](C)NC(=O)[C@H](CC(N)=O)NC(=O)[C@@H]1CCCN1C(=O)CNC(=O)[C@H](CO)NC(=O)[C@H](CC(N)=O)NC(=O)[C@H](C)NC(=O)[C@H](Cc1ccccc1)NC(=O)[C@H](CCCCN)NC(=O)[C@H](CCCCN)NC(=O)[C@H](C)NC(=O)[C@H](CCCCN)NC(=O)[C@H](Cc1c[nH]c2ccccc12)NC(=O)[C@H](Cc1c[nH]c2ccccc12)NC(=O)[C@H](CCCCN)NC(=O)[C@@H](N)CCCCN)C(=O)N[C@@H](CCC(N)=O)C(=O)N[C@H](C(=O)N[C@@H](CC(C)C)C(=O)N[C@@H](C)C(=O)N[C@@H](CCC(N)=O)C(=O)O)[C@@H](C)O` [KKWWKAKKFANSGPNALQTLAQ] showed an MIC [53] of 25.4 µM (≈ 64 µg/mL), an MIC [6] of 25.4 µM (≈ 64 µg/mL) and an MIC [54] of 25.4 µM (≈ 64 µg/mL). It also gave an MIC [55] of 25.4 µM (≈ 64 µg/mL), an MIC [56] of 25.4 µM (≈ 64 µg/mL) and an MIC [57] of 25.4 µM (≈ 64 µg/mL). The MIC [58] was 25.4 µM (≈ 64 µg/mL).
